Reference: PMC6919601, “Identification of Plasmodium dipeptidyl aminopeptidase allosteric inhibitors by high throughput screening” (PLoS ONE, 2019)
“And” between values parts separate entries of the source, which are not always exact repeats. Equal values may be shown once. Screen size: about 110,000 compounds; about 230 (0.21%) showed an effect of 50% or more. This is one part of the list.

These molecules were tested against DPAP1 (Plasmodium falciparum, UniProt Q8IIJ9) (assay: primary screen, percent inhibition; read by cleavage of a fluorogenic dipeptide substrate; higher = more effect of the substance).
Chain of DPAP1 (Q8IIJ9 whole entry, looked up): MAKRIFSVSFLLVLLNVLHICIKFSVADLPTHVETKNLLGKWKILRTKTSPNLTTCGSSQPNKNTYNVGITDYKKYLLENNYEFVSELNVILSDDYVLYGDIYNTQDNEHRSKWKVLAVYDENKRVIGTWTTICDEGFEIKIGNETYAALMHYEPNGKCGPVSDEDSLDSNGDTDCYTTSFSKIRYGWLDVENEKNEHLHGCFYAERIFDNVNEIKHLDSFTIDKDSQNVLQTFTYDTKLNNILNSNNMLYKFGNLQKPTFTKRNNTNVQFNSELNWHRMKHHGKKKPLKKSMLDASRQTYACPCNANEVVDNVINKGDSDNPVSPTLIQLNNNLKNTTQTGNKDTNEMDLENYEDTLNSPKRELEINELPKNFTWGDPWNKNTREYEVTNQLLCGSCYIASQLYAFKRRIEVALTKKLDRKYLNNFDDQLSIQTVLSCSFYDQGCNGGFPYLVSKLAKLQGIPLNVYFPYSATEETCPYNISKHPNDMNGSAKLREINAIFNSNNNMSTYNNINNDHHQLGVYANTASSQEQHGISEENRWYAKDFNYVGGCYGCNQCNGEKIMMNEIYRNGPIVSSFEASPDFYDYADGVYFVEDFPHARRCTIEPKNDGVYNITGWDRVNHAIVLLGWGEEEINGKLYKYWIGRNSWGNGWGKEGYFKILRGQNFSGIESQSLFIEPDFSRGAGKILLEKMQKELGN
Set-up: species or system P. falciparum D10 trophozoite lysates; single well
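Further: 30 min substrate incubation versus DMSO and 10 µM JCP410 controls.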

Q: Which “% Inhibition @ 10 uM” value does the source give for `CCOc1ccccc1NC(=O)COc1c(C)cccc1C` here?
A: The value was -6.08%.

Q: For `Cc1cc(C)c(C)c(S(=O)(=O)NCC(=O)Nc2ccccc2F)c1C`, which “% Inhibition @ 10 uM” value is on record?
A: The value was -1.55%.

Q: Which “% Inhibition @ 10 uM” value does the source give for `Fc1ccccc1-c1nn2c(Cn3nnc4ccccc43)nnc2s1` here?
A: Its value is 1.25%.

Q: With `CC(C)C[C@@H](C(=O)NCC#N)c1cccc(-c2ccc(S(=O)(=O)N3CCN(C(C)(C)C)CC3)s2)c1` as the molecule, how does the “% Inhibition @ 10 uM” value read?
A: Its value is -3.04%.

Q: For `O=C(Nc1ccc(S(=O)(=O)Nc2ccccc2C(F)(F)F)cc1)c1ccc(F)cc1`, which “% Inhibition @ 10 uM” value is on record?
A: Its value is -0.0619%.

Q: `CN(C)CCCNC(=O)/C(=C\c1ccc(Cl)cc1)NC(=O)c1ccccc1` was tested. Which “% Inhibition @ 10 uM” value did it give?
A: Its value is 1.27%.

Q: How did the “% Inhibition @ 10 uM” value turn out when `CCC(C)N/C=C1/C(=O)NC(=O)N(c2ccccc2C)C1=O` (centres unmarked) was run?
A: Its value is -5.65%.

Q: With `Cc1ccc2[nH]c(C)c(CCn3c(C)nc(=O)c(-c4ccccc4)c3C)c2c1` as the molecule, how does the “% Inhibition @ 10 uM” value read?
A: The value was 4%.

Q: With `CC1=C(C#N)C(=O)N(CCc2ccccc2)C(=O)/C1=C\NC(=O)Nc1ccccc1Br` as the molecule, how does the “% Inhibition @ 10 uM” value read?
A: The value was 0.726%.

Q: For `COC(=O)C(CC(C)C)NC(=O)Nc1ccccc1` (centres unmarked), which “% Inhibition @ 10 uM” value is on record?
A: The value was -11.3%.

Q: How did the “% Inhibition @ 10 uM” value turn out when `Cc1cccc(Cn2c(SCc3ccc(C(=O)NCc4cccnc4)cc3)nc3cccnc32)c1` was run?
A: The value was 2.97%.

Q: For `CCOCCn1c(-c2ccc(OC)cc2)nc2ccccc21`, which “% Inhibition @ 10 uM” value is on record?
A: The value was -8.28%.

Q: With `Cc1ccc(CCNC(=O)CCc2nc3ncccc3c(=O)n2Cc2ccccc2)cc1` as the molecule, how does the “% Inhibition @ 10 uM” value read?
A: Its value is -0.72%.

Q: How did the “% Inhibition @ 10 uM” value turn out when `CCOc1ccc(C(=O)Nc2cccc(OC)c2)cc1` was run?
A: Its value is 0.00519%.

Q: `COc1ccc(C2C(C#N)=C(N)OC3=C2C(=O)CCC3)cc1COc1ccccc1Cl` (centres unmarked) was tested. Which “% Inhibition @ 10 uM” value did it give?
A: Its value is -1.84%.

Q: How did the “% Inhibition @ 10 uM” value turn out when `CN(C)CCNc1nc2c(c(=O)[nH]c(=O)n2C)n1CCc1ccccc1` was run?
A: The value was -3.41%.

Q: How did the “% Inhibition @ 10 uM” value turn out when `N#CC1=C(N)OC2=C(C(=O)CCC2)C1Cc1ccccc1` (centres unmarked) was run?
A: Its value is 0.565%.

Q: How did the “% Inhibition @ 10 uM” value turn out when `C=C(C)C[C@H]1CC=C[C@H](CC(=C)C)N1CCO` was run?
A: The value was -4.8%.

Q: For `CC(C)C[C@H](NC(=O)c1ccc(NC(=O)OCCc2ccccn2)cc1)C(=O)NCC#N`, which “% Inhibition @ 10 uM” value is on record?
A: Its value is -7.36%.

Q: With `COCC(=O)n1nc(-c2cccnc2)nc1NCc1ccccc1` as the molecule, how does the “% Inhibition @ 10 uM” value read?
A: Its value is -2.92%.

Q: With `COc1ccc(-c2cn3nc(N4CCCC(C(=O)N5CCN(C)CC5)C4)sc3n2)cc1` (centres unmarked) as the molecule, how does the “% Inhibition @ 10 uM” value read?
A: Its value is 8.55%.

Q: How did the “% Inhibition @ 10 uM” value turn out when `Cc1cc2nc(C)n(CCOc3ccccc3C)c2cc1C` was run?
A: Its value is -2.88%.

Q: For `CCCS(=O)(=O)c1c(S(=O)(=O)CCC)c2cnccn2c1C(=O)c1ccc(C)cc1`, which “% Inhibition @ 10 uM” value is on record?
A: The value was -4.24%.

Q: With `COC(=O)C1=C(O)/C(=C\c2ccc(Cl)cc2Cl)N=C1C` as the molecule, how does the “% Inhibition @ 10 uM” value read?
A: Its value is -0.711% and 5%.

Q: Which “% Inhibition @ 10 uM” value does the source give for `O=[N+]([O-])c1ccc2nc3c4ccccc4n(Cc4ccccc4)c3cc2c1` here?
A: Its value is 10.2%.

Q: `c1ccc(CCNC2CCCc3c2[nH]c2ccc(C4CCCCC4)cc32)cc1` (centres unmarked) was tested. Which “% Inhibition @ 10 uM” value did it give?
A: Its value is 9.41%.

Q: `CCOC(=O)N1CCC(N(CCc2ccccc2)Cc2ccccc2)CC1` was tested. Which “% Inhibition @ 10 uM” value did it give?
A: Its value is -3.6%.

Q: With `CC1(C)CC(=O)C2=C(C1)OC(n1cccc1)=C(C#N)C2c1ccccc1` (centres unmarked) as the molecule, how does the “% Inhibition @ 10 uM” value read?
A: Its value is 1.76%.

Q: `COc1ccc(Cl)cc1N1C(=O)C(Cl)=C(N2CCCCC2)C1=O` was tested. Which “% Inhibition @ 10 uM” value did it give?
A: Its value is 2.36%.

Q: With `O=C(CCC(=O)N1CCSc2ncccc21)NCCc1cccs1` as the molecule, how does the “% Inhibition @ 10 uM” value read?
A: The value was -1.23%.

Q: `CCOC(=O)c1c[nH]nc1N` was tested. Which “% Inhibition @ 10 uM” value did it give?
A: The value was -1.99%.

Q: `COc1ccc2cc(/N=C/c3nc(-c4ccc(C)cc4)oc3O)cnc2c1` was tested. Which “% Inhibition @ 10 uM” value did it give?
A: The value was 2.11%.

Q: `COc1ccc(C(=O)N/C(=C\c2ccc(Cl)cc2)C(=O)NCCCN(C)C)cc1` was tested. Which “% Inhibition @ 10 uM” value did it give?
A: The value was -1.93%.

Q: For `CCCCN(CC)CCCNC(=O)C1c2ccccc2C(=O)N(C)C1c1c[nH]c2ccccc12` (centres unmarked), which “% Inhibition @ 10 uM” value is on record?
A: The value was 2.35%.

Q: Which “% Inhibition @ 10 uM” value does the source give for `Cc1ccc(S(=O)(=O)N(CC(=O)NCc2ccco2)c2cc(C)cc(C)c2)cc1` here?
A: The value was -3.95%.

Q: How did the “% Inhibition @ 10 uM” value turn out when `CN(CCc1ccccn1)c1ncnc2c1cnn2-c1ccc(Cl)cc1` was run?
A: Its value is -2.49%.

Q: `Cc1ccc(NC(=O)C2CCCN(S(=O)(=O)c3cccs3)C2)cn1` (centres unmarked) was tested. Which “% Inhibition @ 10 uM” value did it give?
A: The value was 1.2%.

Q: `Cn1c(=O)c2c(-c3ccccc3)n(-c3ccccn3)cc2n(C)c1=O` was tested. Which “% Inhibition @ 10 uM” value did it give?
A: Its value is 2.02%.

Q: Which “% Inhibition @ 10 uM” value does the source give for `O=C(NCc1ccc2c(c1)OCO2)c1nc(Cn2cc(Br)cn2)no1` here?
A: Its value is 1.84%.

Q: How did the “% Inhibition @ 10 uM” value turn out when `CCC1(C)Cc2ccccc2-c2nc(S)nc(O)c21` (centres unmarked) was run?
A: Its value is -6.29%.

Q: For `CC(=O)N/C=C1/C(=O)NC(=O)N(c2cccc(C)c2)C1=O`, which “% Inhibition @ 10 uM” value is on record?
A: The value was -0.736%.

Q: How did the “% Inhibition @ 10 uM” value turn out when `CCC(C)C(NCc1cccc(Br)c1)C(=O)O` (centres unmarked) was run?
A: The value was -1.99%.

Q: With `CCOC(=O)C1=C(CS(=O)(=O)c2ccccc2)NC(=O)NC1c1cccc(OC)c1` (centres unmarked) as the molecule, how does the “% Inhibition @ 10 uM” value read?
A: The value was 2.85%.

Q: With `CCOC(=O)c1cc2c(=O)n3ccccc3nc2n(C)/c1=N\C(C)=O` as the molecule, how does the “% Inhibition @ 10 uM” value read?
A: Its value is 2.84%.

Q: With `C(=N\N=C1c2ccccc2-c2ccccc21)/c1cccnc1` as the molecule, how does the “% Inhibition @ 10 uM” value read?
A: The value was 4.1%.

Q: Which “% Inhibition @ 10 uM” value does the source give for `CCOc1ccccc1-n1c(C)cc(/C=C2/C(=N)N3C(=NC2=O)SN=C3S(C)(=O)=O)c1C` here?
A: Its value is 0.163%.

Q: How did the “% Inhibition @ 10 uM” value turn out when `CCc1ccc(/C=C(/NC(=O)c2ccccc2)C(=O)O)s1` was run?
A: Its value is 6.31%.

Q: Which “% Inhibition @ 10 uM” value does the source give for `COc1cccc(C2=CC(c3cc(OC)ccc3OC)n3nnnc3N2)c1` (centres unmarked) here?
A: Its value is -7.08%.

Q: For `Cc1n[nH]c(C)c1N1C(=O)c2cccc3c(N)ccc(c23)C1=O`, which “% Inhibition @ 10 uM” value is on record?
A: Its value is 2.46% and -0.116%.

Q: For `NC(Cc1c[nH]c2ccccc12)C(=O)NCc1ccccc1` (centres unmarked), which “% Inhibition @ 10 uM” value is on record?
A: Its value is -4.16%.

Q: With `COc1cc(Br)cc2cc(-c3nc4ccccc4s3)c(=O)oc12` as the molecule, how does the “% Inhibition @ 10 uM” value read?
A: The value was -3.53%.

Q: With `CCOC(=O)c1cc(S(=O)(=O)NC2CCCc3ccccc32)cn1C` (centres unmarked) as the molecule, how does the “% Inhibition @ 10 uM” value read?
A: The value was 2.32%.

Q: Which “% Inhibition @ 10 uM” value does the source give for `CC1CCCCN1S(=O)(=O)c1ccc(F)cc1` (centres unmarked) here?
A: The value was 5.35%.

Q: Which “% Inhibition @ 10 uM” value does the source give for `Cc1cc(-c2nc3ccccc3o2)c2ccccc2n1` here?
A: Its value is -6.12%.

Q: How did the “% Inhibition @ 10 uM” value turn out when `CC(=O)Nc1ccccc1NC(C)=C1C(=O)N(C)C(=O)N(C)C1=O` was run?
A: The value was -6.27%.

Q: For `C=CCOC(=O)C1=C(C)N=C2CCCC(O)=C2C1c1ccccc1OCCCC` (centres unmarked), which “% Inhibition @ 10 uM” value is on record?
A: The value was 18%.

Q: `CC12CN3CC(C)(CN(C1)C3c1cccnc1)C2=O` (centres unmarked) was tested. Which “% Inhibition @ 10 uM” value did it give?
A: The value was 2.51%.

Q: For `Cc1nn(Cc2ccc(C(=O)Nc3ccc(CC#N)cc3)cc2)c(C)c1Cl`, which “% Inhibition @ 10 uM” value is on record?
A: Its value is 1.35%.

Q: `COc1ccc(CCNc2ncnc3c2cnn3-c2ccc(Cl)cc2)cc1OC` was tested. Which “% Inhibition @ 10 uM” value did it give?
A: The value was 6.89%.

Q: How did the “% Inhibition @ 10 uM” value turn out when `Cc1c(C)n(Cc2ccccc2)c2ccc(C(=O)N3CCN(c4ncccn4)CC3)cc12` was run?
A: Its value is 4.27%.

Q: How did the “% Inhibition @ 10 uM” value turn out when `COc1cc(C(=O)N2CCC3(CC2)N=C(c2ccccc2)C(=O)N3)cc(OC)c1OC` was run?
A: The value was -3.22%.

Q: `CC1=NN(C(=O)c2ccccc2-n2cccc2)C(O)(C(F)(F)F)C1` (centres unmarked) was tested. Which “% Inhibition @ 10 uM” value did it give?
A: Its value is 0.709%.
